Experimental data from PubChem BioAssay AID488969 (Vanderbilt High Throughput Screening Facility, 2010).
The full ranking holds about 110,000 compounds; the median of “z-score” is about -0.1, and the highest 2% start at about 2. This is one part of the list.

Target: Metabotropic glutamate receptor 8 (Rattus norvegicus) (UniProt P70579)
Experiment: mGluR8 Gi/Go-coupled signaling modulation – cell-based, rat, thallium flux, HTS, primary screen (AID 488969)
Settings: HEK293 rat mGluR8, GIRK (G protein-gated inwardly rectifying potassium channel) thallium flux, FluoZin2; at 10 µM; stronger effect = higher value; submaximal glutamate (EC20) added with thallium

UniProt P70579, sequence (P70579 whole entry, looked up): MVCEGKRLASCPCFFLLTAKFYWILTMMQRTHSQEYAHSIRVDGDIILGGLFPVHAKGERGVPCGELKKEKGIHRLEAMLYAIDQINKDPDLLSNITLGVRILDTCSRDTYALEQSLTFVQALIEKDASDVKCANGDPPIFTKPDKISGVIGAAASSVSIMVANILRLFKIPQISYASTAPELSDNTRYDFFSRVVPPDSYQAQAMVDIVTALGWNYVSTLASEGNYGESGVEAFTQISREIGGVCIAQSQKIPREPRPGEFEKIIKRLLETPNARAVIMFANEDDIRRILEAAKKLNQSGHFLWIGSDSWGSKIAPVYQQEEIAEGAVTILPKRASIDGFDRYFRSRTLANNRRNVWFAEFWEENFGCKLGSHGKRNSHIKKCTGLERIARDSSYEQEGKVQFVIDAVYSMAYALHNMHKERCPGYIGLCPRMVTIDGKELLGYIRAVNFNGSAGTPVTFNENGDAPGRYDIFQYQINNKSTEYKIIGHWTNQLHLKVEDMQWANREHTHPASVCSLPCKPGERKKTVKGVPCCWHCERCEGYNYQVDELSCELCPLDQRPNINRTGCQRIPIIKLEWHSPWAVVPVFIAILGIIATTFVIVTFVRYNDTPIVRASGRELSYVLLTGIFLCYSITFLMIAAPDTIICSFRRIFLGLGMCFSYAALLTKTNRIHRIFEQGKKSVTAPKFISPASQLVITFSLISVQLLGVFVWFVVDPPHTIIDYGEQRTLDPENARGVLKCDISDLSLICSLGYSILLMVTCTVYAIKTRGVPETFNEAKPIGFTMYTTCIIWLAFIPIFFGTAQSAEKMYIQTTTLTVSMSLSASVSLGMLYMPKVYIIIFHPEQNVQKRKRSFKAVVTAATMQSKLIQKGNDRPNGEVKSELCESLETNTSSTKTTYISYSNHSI

| SMILES | z-score |
| --- | --- |
| O=C(CS(=O)c1ccc(C(F)(F)F)cc1[N+](=O)[O-])Oc1ccc(Cl)cc1 (centres undefined) | 0.0797 |
| CC1Cc2ccccc2N1C(=O)CSc1nc2c(c(=O)n(C)c(=O)n2C)n1Cc1ccccc1 (centres undefined) | -1.16 |
| CCCn1c(=O)c2c(C(F)(F)F)cc(-c3cccs3)nc2n(CCC)c1=O | -0.264 |
| Cc1ccc(NS(=O)(=O)c2cc(NC(=O)c3cc4c(s3)CCCC4)ccc2C)c(C)c1 | -0.0232 |
| CCS(=O)(=O)C(=C1NCCO1)S(=O)(=O)CC | -0.145 |
| Cc1cc(N)n(-c2nc(-c3cccnc3)nc3ccccc23)n1 | -0.496 |
| COc1ccccc1NS(=O)(=O)c1cccc(N=C2N=C(N)c3ccccc32)c1 | -0.673 |
| CC(C)(C)OC(=O)N1CCC[C@H]1c1nnc(SCc2c(F)cccc2Cl)o1 | 0.0657 |
| CCOc1cc(/C=C2\N=C(C)OC2=O)cc(Br)c1OCC(=O)OC | -0.0313 |
| O=C(NCc1cccnc1)c1ccc(COc2ccccc2Br)o1 | -0.856 |
| Cc1ccc(N2C(=O)c3cccc4c(Oc5ccccc5[N+](=O)[O-])ccc(c34)C2=O)c(C)c1 | 0.169 |
| CC1=NN(c2ccccc2)C(=O)C1(C)C | -0.362 |
| O=C(NCc1ccccc1)C(Cc1ccccc1)NS(=O)(=O)c1cccc2nsnc12 (centres undefined) | -0.095 |
| CCOc1ccc2nc(SC3CC(=O)N(c4ccc(C)cc4)C3=O)sc2c1 (centres undefined) | 0.0229 |
| COC(=O)c1c(-c2ccc(Br)cc2)csc1NC(=O)Cc1ccc(OC)c(OC)c1 | -0.0487 |
| COc1ccc(C(=O)NNC(=O)Cc2ccc(-c3ccccc3)cc2)cc1OC | 0.639 |
| O=C(NCC1CCCO1)c1sc(=S)n2c1[nH]c(=O)c1ccc(C(=O)N3CCCCC3)cc12 (centres undefined) | -0.851 |
| O=C(CCCn1c(=S)[nH]c2ccccc2c1=O)N1CCN(c2cccc(Cl)c2)CC1 | 0.104 |
| COC(=O)c1ccc(COc2ccccc2/C=C(\C#N)C(=O)NC(C)C)cc1 | -0.308 |
| CCCCNC(=O)CCn1c(=O)c2ccccc2n(CC(=O)N2CC(C)CC(C)C2)c1=O (centres undefined) | -0.218 |
| Cc1cc(C)n(CC(O)Cn2c(C)c(C)c3ccccc32)n1 (centres undefined) | 0.166 |
| CCN1CCN(C(=O)c2ccc(COc3ccc(Cl)cc3)o2)CC1 | 0.356 |
| Cc1ccn2c(NCc3ccc4c(c3)OCO4)c(-c3ccc(O)cc3)nc2c1 | -0.00285 |

| SMILES | z-score |
| --- | --- |
| CC1Cc2ccccc2N1c1nc(C2CC2)nc2c1nnn2Cc1ccccc1 (centres undefined) | -0.314 |
| C=CCN(C(=O)c1cccc(S(=O)(=O)N2CCN(C)CC2)c1)c1nc(-c2ccccc2)cs1 | -0.229 |
| O=C(CSc1nnc(-c2ccncc2)n1Cc1ccco1)OC1CCCCC1 | -0.368 |
| Cc1ccc(C(=O)Nc2cccc(Oc3ccccc3)c2)o1 | -1.41 |
| Cc1csc(NC(=O)CSc2ncn(-c3ccccc3)n2)n1 | -0.32 |
| Cc1ccc(OCCn2cnc3c(N)ncnc32)cc1 | 0.645 |
| c1ccc(-c2noc(-c3cccnc3)n2)cc1 | -0.191 |
| CCOc1cc(N2CCOCC2)c(OCC)cc1NC(=O)Cc1cccc2ccccc12 | -0.178 |
| Cc1ccccc1OCC(=O)NCCN(C)C | -0.273 |
| O=C1C2Sc3[nH]c(=O)sc3C(c3ccccc3)C2C(=O)N1c1ccccc1 (centres undefined) | 0.0602 |
| COc1ccc2c(c1)Cc1sc(NC(=O)c3ccco3)nc1-2 | 0.0215 |
| COC(=O)c1ccc2nc(Nc3nc4c(F)cc(F)cc4s3)sc2c1 | 1.56 |
| COc1ccc(NC(=O)CC(NCCc2ccccc2)C(=O)O)c(OC)c1 (centres undefined) | -0.56 |
| COc1ccc(C(=O)Nc2ccc(Cl)cc2C(=O)NCc2ccco2)cc1 | -0.479 |
| O=C1CC(=O)C(n2cncn2)C(c2ccc(Cl)cc2)C1 (centres undefined) | 0.425 |
| Cc1cc(NC(=O)Cc2cn3ccsc3n2)n(-c2ccccc2)n1 | 0.609 |
| O=C1N/C(=N\N=C\c2cccs2)SC1Cc1ccc(Cl)cc1 (centres undefined) | -0.295 |
| OC(COc1ccc2ccccc2c1Br)Cn1ccnc1 (centres undefined) | 0.596 |
| Cn1c2ccccc2c2nnc(SCc3ccc4nonc4c3)nc21 | -0.104 |
| CCOc1ccccc1CNCCO | -0.212 |
| O=C(C[n+]1ccc(C(=O)N/N=C/c2ccc(O)cc2)cc1)c1ccccc1 | -0.119 |
| CSCCC1NC2(C(=O)Nc3c(C)cc(Cl)cc32)[C@@H]2C(=O)N(C3CCCC3)C(=O)[C@H]12 (some centres undefined) | -1.13 |
| O=C(CN1CCCN(S(=O)(=O)c2ccc(Br)cc2)CC1)Nc1ccc2c(c1)OCO2 | -0.0432 |

| SMILES | z-score |
| --- | --- |
| N#C/C(C(=O)c1ccccc1)=C1/CCCN1 | -0.528 |
| Cc1ccc(S(=O)(=O)N2CCOCC2)cc1NC(=O)COC(=O)CNC(=O)c1ccc(Oc2ccccc2)cc1 | 0.515 |
| O=C1NC(=S)N/C1=C/c1cc([N+](=O)[O-])ccc1O | 0.183 |
| Cn1c(COc2ccccc2)nnc1SCCN1CCOCC1 | 0.807 |
| COc1ccccc1NC(=O)Nc1nnc(-c2ccco2)s1 | -0.166 |
| COc1ccc(N2CCN(S(=O)(=O)c3ccc(OC)cc3)CC2)cc1 | -0.166 |
| COc1cc(C(=O)NC(=S)Nc2cccc(-c3cc4ccccc4oc3=O)c2)cc(OC)c1OC | -0.405 |
| O=C(/C=C/c1ccccc1)NC(=S)Nc1ccccc1C(=O)NC1CCCCC1 | -0.0243 |
| Cc1cccc(NC(=O)c2cc3ccccc3o2)c1 | -1.37 |
| COc1ccc(NC(=O)CN2CCN(C(=O)c3ccco3)CC2)c(OC)c1 | 0.598 |
| C=CCOc1c(Cl)cc(CNCCC)cc1Cl | 1.03 |
| COc1ccc(-c2cc3n(n2)CCc2nc4ccccc4n2-3)cc1 | -0.684 |
| Cc1ccc(S(=O)(=O)Nc2nc(C)cc(-n3nc(C)cc3C)n2)cc1 | -0.278 |
| CCOC(=O)N1CCC(NC(=O)c2ccc3c(c2)N(Cc2ccc(F)cc2)CCS3)CC1 | -0.529 |
| CCOC(=O)CC(NC(=O)C(CC)c1ccccc1)c1ccccc1Cl (centres undefined) | -0.105 |
| Cn1c2c(c(=O)n(C)c1=O)C(CC(=O)Nc1ccccc1)C(=O)N2 (centres undefined) | -0.0672 |
| Cc1ccc(C(=O)/C=C/C(=O)O)cc1 | 0.845 |
| CC(=O)n1nc(-c2ccco2)nc1N | 0.38 |
| N#Cc1c2n(c3c(=O)n(Cc4ccc(Cl)cc4)cnc13)CCCC2 | -0.29 |
| CN1CCN(Cc2cc(=O)oc3cc4c(cc23)CCC4)CC1 | 0.745 |
| Cc1ccc(Cn2nc(C)c(NC(=O)CCCn3nc(C)c([N+](=O)[O-])c3C)c2C)cc1 | -0.238 |
| COC(=O)c1ccccc1NC(=O)CSc1nc(NC(=O)c2ccccc2)c2c(C)c(C)oc2n1 | -0.997 |
| O=C(Nc1ccc(Cl)c(Cl)c1)Nc1ccc(N2CCCC2)c(S(=O)(=O)Nc2ccccc2Cl)c1 | 0.0419 |
